US11365205B2 (Aurigene Discovery Technologies Limited, priority 2018, dated 2022)

These molecules were tested against PRMT5/MEP50 Complex (Homo sapiens (Human), UniProt O14744) (assay: PRMT5 inhibition based on TR-FRET assay). Conditions: 32 nM PRMT5:MEP50, 50 nM Histone-H4 peptide, 1 μM SAM.
Format: biochemical
Description: PRMT5 Inhibition Based on TR-FRET Assay:
Protein arginine methyltransferase 5 (PRMT5) is a type II arginine methyltransferase that catalyze mono- and symmetric demethylation on arginine residues of histone or non-histone proteins in presence of S-adenosylmethionine (AdoMet or SAM) a cofactor responsible for donating the methyl group. PRMT5 is reported to be overexpressed in several human cancers. To identify compounds that inhibit the PRMT5 and decrease its activity, a TR-FRET based assay has been established. Time-resolved fluorescence resonance energy transfer (TR-FRET) HTS assays are homogeneous proximity assays where the interaction of two dye-labeled binding partners is detected by the energy transfer between a donor and an acceptor dye and the subsequent light emission by the acceptor dye. PRMT5 catalyzes Histone H4 peptide which is biotin tagged to the Lysine amino acid at carboxyl end, in presence of S-adenosyl-1-methionine (SAM) to methylate the peptide. The antibody specific to mono methylated H4 peptide (H4R3) with Ig conjugate binds to the methylated peptide, indirectly binding to the Europium lanthanide. SureLight Allophycocyanin-Streptavidin binds to the biotin tag of the peptide, therefore accepting the energy transferred from the Europium lanthanide. This energy transfer between Europium to SureLight Allophycocyanin is a direct measure of the activity/inhibition of the PRMT5 enzyme.
Assay buffer: 20 mM BICINE (pH 7.6), 25 mM NaCl, 2 mM DTT, 0.01% Tween-20 and 0.01% BSA.
The compound dilutions were prepared as 7.5% DMSO stock solutions in assay buffer. To 2 μL (7.5×) of test compound, 5 μL of PRMT5 enzyme prepared in assay buffer (Final concentration of 32 nM in 15 μL reaction volume) was added and allowed for 30 minutes pre-incubation time in a white polystyrene 384-well plate at room temperature. […] The plates were then read on Victor-3 with Excitation at 340 nm and Emissions collected at 615 and 665 nm in TR-FRET protocol. […]

UniProt O14744, sequence (O14744 whole entry): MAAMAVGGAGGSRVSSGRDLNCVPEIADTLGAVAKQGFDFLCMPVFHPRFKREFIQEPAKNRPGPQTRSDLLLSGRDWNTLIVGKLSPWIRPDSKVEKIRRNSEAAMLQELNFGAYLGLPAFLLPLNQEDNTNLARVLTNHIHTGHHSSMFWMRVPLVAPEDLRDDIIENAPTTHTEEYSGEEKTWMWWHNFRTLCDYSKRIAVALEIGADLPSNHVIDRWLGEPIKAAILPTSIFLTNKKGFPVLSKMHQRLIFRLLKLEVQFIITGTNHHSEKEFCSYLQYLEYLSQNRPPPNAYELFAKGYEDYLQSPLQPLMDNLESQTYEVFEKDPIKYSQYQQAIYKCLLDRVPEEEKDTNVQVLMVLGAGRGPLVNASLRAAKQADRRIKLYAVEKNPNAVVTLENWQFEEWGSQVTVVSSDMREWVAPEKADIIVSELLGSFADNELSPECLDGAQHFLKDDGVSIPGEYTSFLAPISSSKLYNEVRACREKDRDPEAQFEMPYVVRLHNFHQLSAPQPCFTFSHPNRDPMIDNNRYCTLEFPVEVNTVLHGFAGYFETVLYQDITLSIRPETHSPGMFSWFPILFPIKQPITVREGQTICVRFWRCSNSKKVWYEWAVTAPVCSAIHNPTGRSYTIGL
UniProt O14744, sequence (Q9BQA1 whole entry partner): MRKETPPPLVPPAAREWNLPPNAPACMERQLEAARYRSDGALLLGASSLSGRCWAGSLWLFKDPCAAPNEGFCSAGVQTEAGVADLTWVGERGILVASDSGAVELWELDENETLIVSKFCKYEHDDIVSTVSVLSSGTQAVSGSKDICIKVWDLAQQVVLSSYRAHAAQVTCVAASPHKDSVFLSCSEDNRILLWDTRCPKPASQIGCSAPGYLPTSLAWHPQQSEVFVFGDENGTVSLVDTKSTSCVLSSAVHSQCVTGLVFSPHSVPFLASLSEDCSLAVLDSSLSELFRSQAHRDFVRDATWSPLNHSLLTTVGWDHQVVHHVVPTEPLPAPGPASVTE

Row | IC50 [nM] | Structure (SMILES)
1 | 3420 | O=C(c1ccc(N2CCN(CC(O)CN3CCc4ccccc4C3)C2=O)nc1)N1CCCCC1 (stereo not drawn) [Example 34, 1-(3-(3,4-dihydroisoquinolin-2(1H)-yl)-2-hydroxypropyl)-3-(5-(piperidine-1-carbonyl)pyridin-2-yl)imidazolidin-2-one]
2 | 270 | O=C1N(Cc2ccc3c(c2)COCC3)CCN1CC(O)CN1CCc2ccccc2C1 (stereo not drawn) [Example 43, 1-(3-(3,4-Dihydroisoquinolin-2(1H)-yl)-2-hydroxypropyl)-3-(isochroman-7-ylmethyl)imidazolidin-2-one]
3 | 610 | Cn1cc(CN2CCN(CC(O)CN3CCc4ccccc4C3)C2=O)ccc1=O (stereo not drawn) [Example 44, 5-((3-(3-(3,4-Dihydroisoquinolin-2(1H)-yl)-2-hydroxypropyl)-2-oxoimidazolidin-1-yl)methyl)-1-methylpyridin-2(1H)-one]
